Laboratory results: the supplement of paper PMC10369915
This is one part of the list. No stated cut-off is given here; in the data, active = 3.2 or more and inactive = the rest. Only a few entries rise above the background.

Assays:
Test in all cases: enrichment score (SH2-bound / input frequency) (ratio); bacterial display of known human phosphotyrosine sites (pTyr-Var adds point mutants) read by sequencing; higher = stronger binding; tyrosines were phosphorylated by kinases first
Details in all cases: peptide library: pTyr-Var
[1] = target: SHP2 C-SH2 domain E139D
[2] = target: SHP2 C-SH2 domain wild-type
[3] = target: SHP2 N-SH2 domain L43F
[4] = target: SHP2 N-SH2 domain T42A
[5] = target: SHP2 N-SH2 domain T52S
[6] = target: SHP2 N-SH2 domain wild-type
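Further: displayed peptides selected on beads carrying the immobilized SH2 domain, with library peptides lacking any tyrosine serving as negative controls.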

| Binder | enrichment score [1] | enrichment score [2] | enrichment score [3] | enrichment score [4] | enrichment score [5] | enrichment score [6] |
| --- | --- | --- | --- | --- | --- | --- |
| ADCRFYAFPQM [GAMT_Y223_YF] | inactive: 0.856 | inactive: 1.21 | inactive: 1.04 | inactive: 0.812 | inactive: 0.791 | inactive: 1.43 |
| AAPAAHDAADT [GAMT_Y27_Y27H] | inactive: 0.375 | inactive: 0.412 | inactive: 0.529 | inactive: 0.36 | inactive: 0.415 | inactive: 0.451 |
| MKKKIYAMGGG [GAN_Y424] | inactive: 0.917 | inactive: 0.632 | inactive: 0.626 | inactive: 0.514 | inactive: 1.07 | inactive: 0.822 |
| VAMELYVFGGV [GAN_Y471] | inactive: 0.863 | inactive: 1.48 | inactive: 0.698 | inactive: 0.814 | inactive: 0.835 | inactive: 1.29 |
| DVFRQYASLTG [GANAB_Y379] | inactive: 0.672 | inactive: 1.97 | inactive: 0.619 | inactive: 1.02 | inactive: 0.575 | inactive: 0.783 |
| LFSLGYHQSLW [GANAB_Y396_R400L] | inactive: 1.41 | inactive: 1.45 | inactive: 1.21 | inactive: 1.5 | inactive: 1.11 | inactive: 0.881 |
| ENPAKYDDIKK [GAPDH_Y255_K251N] | inactive: 1.81 | inactive: 0.596 | inactive: 0.553 | inactive: 0.515 | inactive: 0.582 | inactive: 0.57 |
| NTVLGYFIGRI [GARS1_Y408] | inactive: 1.25 | inactive: 1.25 | inactive: 1.11 | inactive: 1.1 | inactive: 1 | inactive: 1.17 |
| NTVLGYFIGCI [GARS1_Y408_R412C] | inactive: 0.786 | inactive: 1.03 | inactive: 0.975 | inactive: 0.777 | inactive: 0.656 | inactive: 1.32 |
| FIGCIYLYLTK [GARS1_Y414_R412C] | active: 4 | active: 3.46 | inactive: 2.88 | inactive: 2.34 | inactive: 2.07 | inactive: 2.97 |
| FIGCIYLFLTK [GARS1_Y414_R412C_YF] | inactive: 3.17 | inactive: 2.23 | inactive: 2.3 | inactive: 1.75 | inactive: 2.92 | inactive: 2.41 |
| ADRSCYDLSCH [GARS1_Y467] | inactive: 1.03 | inactive: 0.991 | inactive: 0.912 | inactive: 0.769 | inactive: 1.05 | inactive: 0.924 |
| FEGAIYRKDVG [GART_Y417] | inactive: 1.01 | inactive: 1.13 | inactive: 0.722 | inactive: 0.78 | inactive: 0.723 | inactive: 0.986 |
| DRTGHYLCNAC [GATA1_Y223] | inactive: 0.858 | inactive: 0.968 | inactive: 0.772 | inactive: 0.826 | inactive: 0.952 | inactive: 1.32 |
| ANSPVYVPTTR [GATA6_Y188_S184N] | inactive: 0.573 | inactive: 0.678 | inactive: 0.947 | inactive: 0.57 | inactive: 0.746 | inactive: 0.712 |
| TSSAVYMNLAS [GATAD2B_Y317_I316V] | inactive: 2.62 | inactive: 2.22 | inactive: 2.27 | inactive: 2.63 | inactive: 2.36 | inactive: 2.24 |
| VKANTYENYWP [GATM_Y100_K102N] | active: 4.94 | active: 3.6 | active: 4.83 | active: 5.06 | active: 3.99 | active: 3.74 |
| NTYENYWPFYQ [GATM_Y103_K102N] | active: 4.78 | active: 4.35 | active: 4.27 | active: 4.5 | active: 4.99 | active: 4.18 |
| SIIKDYFHRGA [GATM_Y203] | inactive: 1.23 | inactive: 1.01 | inactive: 1.29 | inactive: 1 | inactive: 1.11 | inactive: 1.05 |

| Binder | enrichment score [1] | enrichment score [2] | enrichment score [3] | enrichment score [4] | enrichment score [5] | enrichment score [6] |
| --- | --- | --- | --- | --- | --- | --- |
| SIIKDYFHRGT [GATM_Y203_A208T] | inactive: 0.751 | inactive: 0.782 | inactive: 0.913 | inactive: 0.856 | inactive: 0.831 | inactive: 0.86 |
| SIIKDSFHRGA [GATM_Y203_Y203S] | inactive: 0.921 | inactive: 0.797 | inactive: 0.919 | inactive: 0.699 | inactive: 0.926 | inactive: 0.856 |
| QPGDIYHQTWA [GBA_Y244] | inactive: 0.71 | inactive: 0.775 | inactive: 0.924 | inactive: 0.766 | inactive: 0.762 | inactive: 0.936 |
| ITNLLYHVVGW [GBA_Y412] | active: 3.7 | active: 4.16 | active: 3.44 | inactive: 3.14 | active: 3.46 | active: 3.37 |
| ITNVLYHVVGW [GBA_Y412_L410V] | inactive: 2.66 | inactive: 2.74 | inactive: 2.48 | inactive: 2.68 | inactive: 2.47 | inactive: 2.53 |
| IMNLLYHVVGW [GBA_Y412_T408M] | active: 4.2 | active: 3.8 | active: 4.06 | active: 3.55 | active: 3.76 | active: 3.59 |
| TKDTFYKQPMF [GBA_Y451] | inactive: 0.994 | inactive: 0.951 | inactive: 1.91 | active: 3.84 | inactive: 1.88 | inactive: 0.92 |
| TKHTFYKQPMF [GBA_Y451_D448H] | inactive: 1.23 | inactive: 1.22 | inactive: 1.2 | inactive: 2.11 | inactive: 1.28 | inactive: 1.19 |
| TKDTFYKQPMV [GBA_Y451_F456V] | inactive: 0.692 | inactive: 0.929 | inactive: 0.837 | inactive: 0.609 | inactive: 0.588 | inactive: 0.99 |
| TKDTFYKQPVF [GBA_Y451_M455V] | inactive: 0.717 | inactive: 0.787 | inactive: 1.57 | inactive: 2.56 | inactive: 1.36 | inactive: 0.719 |
| TKDTFHKQPMF [GBA_Y451_Y451H] | inactive: 0.958 | inactive: 0.577 | inactive: 0.694 | inactive: 0.568 | inactive: 0.822 | inactive: 0.786 |
| LSVMSYDLGMF [GBA3_Y174] | inactive: 2.07 | inactive: 1.83 | active: 8.02 | inactive: 2.08 | active: 9.88 | inactive: 2.71 |
| QRAADYYSQQM [GBP6_Y333] | inactive: 0.746 | inactive: 0.663 | inactive: 0.693 | inactive: 0.564 | inactive: 0.521 | inactive: 0.819 |
| QRASDYFSQQM [GBP6_Y333_A331S_YF] | inactive: 0.97 | inactive: 0.828 | inactive: 0.753 | inactive: 0.766 | inactive: 0.703 | inactive: 1.12 |
| RAADFYSQQMA [GBP6_Y334_YF] | inactive: 0.669 | inactive: 0.82 | inactive: 0.722 | inactive: 0.779 | inactive: 0.827 | inactive: 0.989 |
| GISDEYHVIRR [GCDH_Y398_H403R] | inactive: 0.685 | inactive: 0.783 | inactive: 0.723 | inactive: 0.817 | inactive: 0.709 | inactive: 0.758 |
| GISDEYHVIQH [GCDH_Y398_R402Q] | inactive: 0.692 | inactive: 0.711 | inactive: 0.916 | inactive: 0.674 | inactive: 0.831 | inactive: 0.965 |
| RIVEIYSRSLQ [GCH1_Y175_R178S] | inactive: 0.804 | inactive: 0.702 | inactive: 0.759 | inactive: 0.744 | inactive: 0.911 | inactive: 0.846 |
| RIVEIYTRRLQ [GCH1_Y175_S176T] | inactive: 0.375 | inactive: 0.346 | inactive: 0.318 | inactive: 0.393 | inactive: 0.303 | inactive: 0.183 |
